# The list shows a part of the results.
# Test system: T1, C. trachomatis L2/434/Bu expressing GFP (CTL2-GFP)
# T1 construct: L2/434/Bu GFP intracellular growth in HeLa cells
# Design: species or system HeLa; C. trachomatis total inclusion area by high-content imaging, normalised to DMSO
# Conditions: total inclusion area; 28.5 h, 10 µM; inhibitor
# Method in brief: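 Imaging read-out: GFP inclusions and Hoechst nuclei captured by high-content imaging after fixation. Inclusion area/number = chlamydial growth; nuclei count = host cell viability. MIC calculated per earlier method.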
row,SMILES,% of control remaining
1,O=C(O)/C=C/C(=O)N1N=C(c2ccc(F)cc2)CC12C(=O)Nc1ccccc12 (centres unmarked) [CBK286747],93.5546
2,COc1ccc(N2CCN(c3nc(N4CCOCC4)nc(N4CCOCC4)n3)CC2)cc1 [CBK264166],94.2815
3,CC(C)OC(=O)Cn1c(C2CCNCC2)cc2cccnc21 [CBK285075],105.549
4,NC(=O)c1ccc(-c2nccnc2NCCc2ccncc2)cc1 [CBK036644],68.9092
5,CCCNC(=O)CN1C(=O)N2CCCN=C2c2ccccc21 [CBK284405],60.1106
6,O=C(NCCc1ccco1)c1ncoc1-c1ccc(F)cc1 [CBK282247],111.623
7,c1ccc2oc([C@H]3CCN(C4CCOCC4)C3)nc2c1 [CBK289388],106.865
8,O=Cc1c(-[n+]2ccc(-c3ccncc3)cc2)nc([O-])n1-c1ccccc1 [CBK261529],82.21
9,CCC1CCCCN1C(=O)c1ccccc1C(=O)OC (centres unmarked) [CBK083196],87.0325
10,COc1ccc(CNc2cccc(C(=O)O)c2C)cc1OC [CBK269634],106.319
11,CC(C)C(CCC(=O)Nc1ccc([N+](=O)[O-])cc1O)C(=O)O (centres unmarked) [CBK268464],96.3287
12,CC(NC(=O)COc1ccc(Cl)cc1)C(=O)O (centres unmarked) [CBK262112],120.784
13,O=C1N=C(NC2C3CC4CC(C3)CC2C4)OC12CCN(CCC(F)(F)F)CC2 (centres unmarked) [CBK115640],74.4439
14,CCC(=O)N1CCCCC(NS(=O)(=O)c2ccc(-n3cccn3)cc2)C1 (centres unmarked) [CBK307398],97.601
15,Cc1cc(CN(C)Cc2ccc3c(c2)n(C)c(=O)n3C)n[nH]1 [CBK281705],56.31
16,N#Cc1c(NC(=O)COc2ccc(Cl)cc2)oc(-c2ccccc2)c1-c1ccccc1 [CBK262938],71.9019
17,CC(C)c1ccc(/C=N/Nc2nc(-c3ccccc3)cs2)cc1 [CBK263091],80.4034
18,Cc1c(C(=O)N2CCC(c3cc4ncccc4[nH]3)CC2)cnn1C [CBK283384],109.408
19,CN(C)c1ccc(CC(=O)Nc2cnc(-c3cccc(C(F)(F)F)c3)c(-c3cccnc3)n2)cc1 [CBK036901],112.626
20,COc1ccccc1NC(=O)NC(=O)C1CCN(CCc2cccs2)CC1 [CBK034912],96.5105
21,CCSc1nn(CC)c2oc3c(c2c1=S)CC(C)(C)OC3 [CBK021960],42.8199
22,COc1ccnc(N2CCN(C(=O)c3cncnc3C)CC2)n1 [CBK304894],132.912
23,COc1ccc2c(c1)C(O)C(NCc1ccccc1)C2 (centres unmarked) [CBK015469C],75.7156
24,COc1ccc(-c2nc(NC(=O)COc3ccc(C)c4c3CCC4)cnc2-c2ccc(F)cc2)cc1 [CBK036990],118.948
25,CCOc1cccc(N2C(=O)c3cc(Br)ccc3NC2c2ccc(OC)c(OC)c2)c1 (centres unmarked) [CBK074502],95.2586
26,COc1ccc(CN2CCN(C(=O)c3ccccc3F)CC2)cc1OCc1ccccc1 [CBK263479],110.759
27,CC(=O)N1CC[C@H]2NC(=O)CNC(=O)C3(CCCC[C@H]2C1)CCN(C(=O)COc1ccccc1)CC3 [CBK292101],96.8554

row,SMILES,% of control remaining
1,O=C(O)c1cc(NC(=O)c2ccco2)cc(NC(=O)c2ccco2)c1 [CBK263388],108.631
2,CCOc1ccc(NC(=O)C(C)O)c(NS(=O)(=O)c2ccc3ccccc3c2)c1 (centres unmarked) [CBK268309],89.1024
3,CC1(CCc2ccccc2)NC(=O)N(CC(=O)c2ccc(-c3ccccc3)cc2)C1=O (centres unmarked) [CBK297114],96.9133
4,CCCn1c(SCC(=O)N2CCN(C(=O)c3cccs3)CC2)n[nH]c1=O [CBK297109],90.8842
5,CS(=O)(=O)NCC(=O)N1CCC2(CCCCOc3ccccc3C(=O)NCCNC2=O)CC1 [CBK292123],95.9126
6,COc1ccc(C(C)C)cc1-c1nc(NS(C)(=O)=O)cc2ccccc12 [CBK073779],111.27
7,Cc1cccc(C(C)(C)C)c1OCCCCNCCN [CBK265092G],73.0694
8,O=C(CSc1ccc2nnc(-c3ccccc3)n2n1)NCC1CCCO1 (centres unmarked) [CBK287515],85.9368
9,O=C(c1cccnc1)C1CCN(C(=O)CC2CC3CCC2C3)CC1 (centres unmarked) [CBK283530],96.1332
10,CCOc1cc(OCC)cc(C(=O)N2CCC3(CC2)CC(=O)c2ccc(N)cc2O3)c1 [CBK168018],10.3876
11,O=C(O)CC1S/C(=N/N=C/c2cn(Cc3ccccc3)c3ccccc23)NC1=O (centres unmarked) [CBK264466],111.19
12,Cc1nn(CCC#N)c(C)c1CCC(=O)NCc1ccccn1 [CBK305693],88.46
13,COc1cc(OC)c2c(c1)OC1(CCN(C(=O)c3cnc(C)cn3)CC1)CC2=O [CBK156503],100.975
14,O=C(NC(=S)N1CCN(c2ccc([N+](=O)[O-])c(N3CCOCC3)c2)CC1)c1cc2ccccc2o1 [CBK268335],112.811
15,CCN(CC)C(=O)[C@@H]1CCCN1c1nc(O)cc(C(F)(F)F)n1 [CBK002867],96.5894
16,O=C(O)Cc1sc(Nc2ccccc2)nc1-c1ccccc1 [CBK286775],58.6318
17,O=C(Cc1ccccc1)N1CCN(C(=O)c2ccco2)CC1 [CBK068325],110.875
18,CN(C)c1cccc(-c2nc(-c3cccs3)cnc2N)c1 [CBK063979],94.4285
19,Cc1nn(C)cc1CN(Cc1cccc(F)c1)CC1CCCO1 (centres unmarked) [CBK283013],95.2013
20,FC(F)(F)c1ccc(N2CCNCC2)nc1OCc1ccc2c(c1)OCCO2 [CBK003994A],29.9028
21,CCC(=O)NCc1csc(-c2ccccc2)n1 [CBK092344],111.872
22,COc1csc(C(=O)Nc2ncn(CC(=O)N3CCCCCC3)n2)c1 [CBK304463],38.6317
23,CC[C@H](Cn1c(=O)oc2ccccc21)NC(=O)c1ccco1 [CBK284541],66.7261
24,Cc1ccc(S(=O)(=O)N2Cc3ccccc3CC2C(=O)Nc2sc3c(c2C#N)CCCC3)cc1 (centres unmarked) [CBK266313],108.442
25,FC(F)(F)c1ccc(CN2CCN(c3nccnc3OCC3COc4ccccc4O3)CC2)cc1 (centres unmarked) [CBK082789T],59.459
26,O=S(=O)(Nc1ccc2cc(Br)cnc2n1)c1cccc2nsnc12 [CBK073894],74.3356
27,CCc1nc2c(OCC(=O)N3CCOCC3)cccn2c1N(C)C(=O)c1ccco1 [CBK147436],86.9005

row,SMILES,% of control remaining
1,CC(Cn1cc(Cl)cn1)C(=O)NCCN(C)C1CCCCC1 (centres unmarked) [CBK282041],87.0691
2,CCN(Cc1ccccc1)C(=O)NCc1cnc(C)cn1 [CBK155218],93.833
3,Cc1nnc(SCC(=O)N/N=C/c2ccc(-c3ccc(Br)cc3)o2)n1-c1ccccc1 [CBK262769],120.673
4,CC1(C)COC(=O)N1C1CCN(C(=O)CCS/C=C\c2ccccc2)CC1 [CBK045134],104.502
5,CCc1nc2ccc(C(=O)NC3=NC(=O)CS3)cn2c1N(CC)C(C)=O [CBK145839],125.342
6,c1ccc2sc(-n3cncn3)nc2c1 [CBK027022],94.1829
7,COc1cc(NC(=O)CCc2ccccc2)nc(OC)n1 [CBK072282],82.5509
8,CN1CCCCC/C1=N/C(=S)CN1CCCC1=S [CBK009052],81.1795
9,O=C(NC(c1ccccc1)c1ccco1)C1CCN(C(=S)NCCc2ccccc2)CC1 (centres unmarked) [CBK060412],102.459
10,Cc1cccc(NC(=O)CN2C(=O)S/C(=C\c3cc(C)n(-c4cc(C)ccn4)c3C)C2=O)c1 [CBK264671],97.1306
11,CCc1nn(CCC(C)O)c(=O)c2cc3sc(C)cc3n12 (centres unmarked) [CBK282869],118.924
12,Cc1nn(C(C)CC(=O)NCc2ccco2)c(C)c1Br (centres unmarked) [CBK269797],78.1758
13,FC(F)(F)c1nc2ccccc2nc1SCc1ccco1 [CBK107201],89.2663
14,CS(=O)(=O)c1cccc(S(=O)(=O)N2CCN(Cc3ccccc3)CC2)c1 [CBK269747],86.9371
15,COCCN(C(=O)CCC(=O)NCCc1ccccc1)C1CCN(C)CC1 [CBK014576],90.3472
16,COC(=O)c1ccsc1NS(=O)(=O)c1ccc(Oc2ccccc2)cc1 [CBK039064],63.5403
17,O=C(Nc1ccc(F)c(F)c1)c1cnc2sccn2c1=O [CBK287450],95.0578
18,CCC1CNCCN1c1nccnc1OCCOc1cccnc1 (centres unmarked) [CBK001559F],78.2026
19,O=C(NCc1c(Cl)cccc1Cl)N1CCCC(CO)C1 (centres unmarked) [CBK156054],71.8867
20,CC(=O)c1sc2nc(C)cc(C)c2c1N [CBK131882],110.853
21,CC(C)NC(=O)c1cc(C2CN(C(=O)CCc3ccccc3F)CCO2)nc2ccccc12 (centres unmarked) [CBK285893],94.1011
22,COC(=O)c1ccsc1NS(=O)(=O)Cc1ccccc1 [CBK039067],106.143
23,CC(C)Nc1nc(NC(C)C)nc(N(C)C(N)=O)n1 [CBK027732],123.812
24,CS(=O)(=O)Nc1nccnc1OC1CCNCC1 [CBK074265T],114.251
25,Cc1ccc(S(=O)(=O)NCCNc2ccc(Cl)cc2[N+](=O)[O-])cc1 [CBK263784],67.0956
26,COc1ccc(CCNc2ccccc2[N+](=O)[O-])cc1OC [CBK074819],76.0104
